Values joined by “and” are separate entries in the source; they are usually repeats but may differ in a detail not shown here. Identical values can stand only once. Inconclusive results, whose numbers are uncertain, are shown with a selection of clear calls. For part of these data: Potencies of inconclusive entries are doubtful fits and often do not repeat. Active and inactive are the calls of the source. Unless noted, the call rests on the fitted dose curve; in most records, active means well fitted curve in the direction sought with a large enough effect in the repeat runs; inconclusive means weak or mixed curves; inactive means no such curve, though single readings can be large; an effect the other way counts as inactive or inconclusive.
Tests used:
[1] = qHTS assay to identify small molecule antagonists of the TGF-beta/Smad signaling pathway (AID 1346924; active means well fitted inhibition curve with a large enough effect in the signal ratio in the repeat runs, not every such curve was filed as active; inconclusive means weak or mixed curves; the % refers to the signal ratio; further: potency means the concentration at half of the fitted maximal effect); details: SBE-bla HEK293T, TGF-beta/Smad reporter, beta-lactamase ratio; activity, negative = inhibition: at 76.8 µM (top of the series) unless noted
Summary of the method: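 SBE-bla HEK 293T cells were plated overnight, then received compound in DMSO plus TGF-beta1 (added as a 0.25 ng/mL solution) and were incubated 5 h at 37 C. Beta-lactamase reporter activity was read after 2 h at room temperature with LiveBLAzer B/G FRET substrate (ex 405, em 460/530 nm).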

[2] = Human pregnane X receptor (PXR) small molecule agonists, qHTS cell viability counter screen (AID 1346977); further: potency means the concentration at half of the fitted maximal effect; nearly all actives have a fitted effect of over 50% in size
Summary of the method: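 In each well, the PXR reporter HepG2 line was checked for viability: CellTiter-Fluor reagent added 23hr post-dosing, fluorescence read after 1hr incubation at 37C.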

[3] = Caspase-3/7 induction in CHO-K1 cells by small molecules, qHTS assay (AID 1346980); further: potency means the concentration at half of the fitted maximal effect; nearly all actives have a fitted effect of over 15% in size
Summary of the method: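 Wild-type cells were seeded at 1,500 per well and settled 5 hr at 37 C, 5% CO2, then exposed to DMSO-dissolved compounds for 17 hr. Caspase-Glo 3/7 reagent was added, and luminescence was read after 30min at room temperature.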

[4] = Caspase-3/7 induction in HepG2 cells by small molecules, qHTS cell viability counter screen (AID 1346981); further: potency means the concentration at half of the fitted maximal effect; nearly all actives have a fitted effect of over 30% in size
Summary of the method: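 Counter screen for cytotoxicity: HepG2 exposed 16 hr to compounds, then CellTiter-Fluor viability signal (fluorescence, 1 hr reagent incubation).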

[5] = molecular target: Nuclear receptor subfamily 1 group I member 2 (Homo sapiens) (UniProt O75469); assay: Human pregnane X receptor (PXR) small molecule agonists, qHTS assay (AID 1346982); further: on the % scale 0 is the no-effect control and ±100 the full control effect; nearly all actives have a fitted effect of over 35% in size
Summary of the method: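 Luminescence (ONE-Glo, 30 min RT) after 24 hr compound exposure of PXR-Luc HepG2 cells; cells rested 5 hr post-plating in 5% charcoal-stripped FBS medium.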

[6] = molecular target: Cytochrome P450 2C19 (Homo sapiens) (UniProt P33261); assay: Cytochrome P450 Family 2 Subfamily C Member 19 (CYP2C19) small molecule antagonists: luciferase reporter qHTS assay (AID 1671197); further: potency means the concentration at half of the fitted maximal effect; nearly all actives have a fitted effect of over 65% in size
Summary of the method: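 Quantitative high-throughput screen of the Tox21 library using CYP2C19 with proluciferin substrate. Reaction: NADPH regeneration, 37C, 1 h, after 10 min compound preincubation at room temperature. Readout: luminescence.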

[7] = molecular target: Cytochrome P450 2C9 (Homo sapiens) (UniProt P11712); assay: Cytochrome P450 Family 2 Subfamily C Member 9 (CYP2C9) small molecule antagonists: luciferase reporter qHTS assay (AID 1671198); further: potency means the concentration at half of the fitted maximal effect; nearly all actives have a fitted effect of over 50% in size
Summary of the method: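 CYP2C9 activity was measured with a P450-Glo proluciferin substrate. Enzyme–substrate mix was held with compound for 10 min at room temperature, then NADPH regeneration solution was added for 1 h at 37C. Luciferin product was read as luminescence.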

[8] = molecular target: Voltage-gated inwardly rectifying potassium channel KCNH2 (Homo sapiens) (UniProt Q12809); assay: Human Ether-a-go-go-Related Gene (hERG) channel small molecule antagonists: fluorescence cell-based qHTS assay (AID 1671200); further: potency means the concentration at half of the fitted maximal effect; nearly all actives have a fitted effect of over 50% in size
Summary of the method: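 In this thallium-flux screen, overnight-cultured U2OS cells bearing the channel are dye-loaded in darkness for an hour, rested 10 min at room temperature, and then monitored kinetically at 480/540 nm for two minutes post-stimulus.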

[9] = Caspase-3/7 induction in CHO-K1 cells by small molecules, qHTS cell viability counter screen (AID 1346979); further: potency means the concentration at half of the fitted maximal effect; nearly all actives have a fitted effect of over 35% in size
Summary of the method: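 Following a 5hr settling period, CHO-K1 cells at 1,500 per well received DMSO-dissolved compounds. Cell viability was quantified 16hr later by CellTiter-Fluor fluorescence, measured after 1hr with reagent at 37C.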

[10] = Caspase-3/7 induction in HepG2 cells by small molecules, qHTS assay (AID 1346978); further: potency means the concentration at half of the fitted maximal effect; nearly all actives have a fitted effect of over 15% in size
Summary of the method: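 Wild-type HepG2 cells (2,000/well) were settled 5 h at 37 C, 5% CO2, then exposed to compounds in DMSO for 17 h. Caspase-3/7 activity was read by luminescence 30 min after adding Caspase-Glo 3/7 reagent at room temperature.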
Tags describe the fitted curve by direction and shape or compound fluorescence and quenching.

Chain of UniProt Q12809 (Q12809 whole entry, looked up): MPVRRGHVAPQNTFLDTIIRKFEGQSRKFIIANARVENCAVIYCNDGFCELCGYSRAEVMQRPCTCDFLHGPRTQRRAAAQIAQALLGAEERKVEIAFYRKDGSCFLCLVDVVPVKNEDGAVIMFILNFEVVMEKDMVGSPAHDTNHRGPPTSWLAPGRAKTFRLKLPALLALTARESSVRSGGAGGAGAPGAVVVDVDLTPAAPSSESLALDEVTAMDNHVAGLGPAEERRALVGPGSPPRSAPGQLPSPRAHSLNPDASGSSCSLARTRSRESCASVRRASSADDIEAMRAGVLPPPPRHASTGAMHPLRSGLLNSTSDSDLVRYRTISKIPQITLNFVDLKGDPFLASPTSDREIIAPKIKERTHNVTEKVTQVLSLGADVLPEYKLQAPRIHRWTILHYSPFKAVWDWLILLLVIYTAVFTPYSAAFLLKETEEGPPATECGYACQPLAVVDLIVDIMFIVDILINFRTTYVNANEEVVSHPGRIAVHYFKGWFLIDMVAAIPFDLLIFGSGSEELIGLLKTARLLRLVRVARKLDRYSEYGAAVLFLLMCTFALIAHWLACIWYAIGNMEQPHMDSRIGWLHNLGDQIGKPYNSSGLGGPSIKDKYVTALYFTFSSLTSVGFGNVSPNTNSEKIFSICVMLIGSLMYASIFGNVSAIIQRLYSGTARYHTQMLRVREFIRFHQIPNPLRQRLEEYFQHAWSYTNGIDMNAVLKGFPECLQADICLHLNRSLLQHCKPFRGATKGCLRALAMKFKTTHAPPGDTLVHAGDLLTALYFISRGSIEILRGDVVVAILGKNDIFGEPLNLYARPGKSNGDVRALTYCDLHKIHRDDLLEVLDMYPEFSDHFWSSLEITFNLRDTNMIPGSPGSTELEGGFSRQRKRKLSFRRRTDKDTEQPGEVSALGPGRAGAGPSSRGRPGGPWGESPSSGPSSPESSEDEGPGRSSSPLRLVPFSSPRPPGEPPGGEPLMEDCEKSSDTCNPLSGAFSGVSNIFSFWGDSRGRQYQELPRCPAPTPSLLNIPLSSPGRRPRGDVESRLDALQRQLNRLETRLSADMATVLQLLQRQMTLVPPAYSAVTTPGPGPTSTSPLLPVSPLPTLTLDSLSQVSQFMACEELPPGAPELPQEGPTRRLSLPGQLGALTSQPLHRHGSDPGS
Chain of UniProt O75469 (O75469 whole entry, looked up): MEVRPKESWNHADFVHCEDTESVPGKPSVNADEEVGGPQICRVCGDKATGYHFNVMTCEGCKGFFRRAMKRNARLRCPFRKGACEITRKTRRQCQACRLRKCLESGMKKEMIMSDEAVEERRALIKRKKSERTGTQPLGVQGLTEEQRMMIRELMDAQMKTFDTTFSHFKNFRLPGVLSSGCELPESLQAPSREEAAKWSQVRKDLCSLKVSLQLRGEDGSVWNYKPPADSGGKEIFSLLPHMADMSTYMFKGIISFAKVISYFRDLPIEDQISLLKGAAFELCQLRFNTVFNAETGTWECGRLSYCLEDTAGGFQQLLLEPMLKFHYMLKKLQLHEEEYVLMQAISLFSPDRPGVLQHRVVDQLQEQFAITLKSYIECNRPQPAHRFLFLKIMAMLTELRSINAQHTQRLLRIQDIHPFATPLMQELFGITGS
Chain of UniProt P33261 (P33261 whole entry, looked up): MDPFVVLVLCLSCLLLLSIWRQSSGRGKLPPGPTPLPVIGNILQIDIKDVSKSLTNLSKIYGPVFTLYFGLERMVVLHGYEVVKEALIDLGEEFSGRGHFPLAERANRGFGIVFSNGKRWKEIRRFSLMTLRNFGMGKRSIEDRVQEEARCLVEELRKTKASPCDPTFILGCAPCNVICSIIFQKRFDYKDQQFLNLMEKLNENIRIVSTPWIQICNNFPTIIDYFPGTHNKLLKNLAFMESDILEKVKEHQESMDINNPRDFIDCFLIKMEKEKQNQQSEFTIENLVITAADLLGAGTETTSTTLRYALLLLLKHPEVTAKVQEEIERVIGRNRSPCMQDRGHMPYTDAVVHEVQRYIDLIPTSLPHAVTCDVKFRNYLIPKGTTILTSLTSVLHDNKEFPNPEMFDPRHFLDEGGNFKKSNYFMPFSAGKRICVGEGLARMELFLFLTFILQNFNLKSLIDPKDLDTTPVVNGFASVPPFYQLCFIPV
Chain of UniProt P11712 (P11712 whole entry, looked up): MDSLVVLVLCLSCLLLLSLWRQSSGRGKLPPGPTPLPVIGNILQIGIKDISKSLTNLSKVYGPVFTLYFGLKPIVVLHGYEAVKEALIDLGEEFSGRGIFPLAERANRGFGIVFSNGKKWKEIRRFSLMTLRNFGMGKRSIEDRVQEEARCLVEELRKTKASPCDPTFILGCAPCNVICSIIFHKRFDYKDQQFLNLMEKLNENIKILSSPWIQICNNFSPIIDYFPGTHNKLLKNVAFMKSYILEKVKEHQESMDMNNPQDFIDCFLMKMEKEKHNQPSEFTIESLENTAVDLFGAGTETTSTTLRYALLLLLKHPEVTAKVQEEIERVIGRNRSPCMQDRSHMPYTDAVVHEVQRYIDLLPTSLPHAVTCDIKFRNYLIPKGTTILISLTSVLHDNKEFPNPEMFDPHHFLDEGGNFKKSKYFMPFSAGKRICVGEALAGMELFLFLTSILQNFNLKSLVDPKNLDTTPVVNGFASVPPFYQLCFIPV

Which Potency [1] does the source give for `CCCCCCCCCCCCCC[N+](C)(C)Cc1ccccc1` here?
Its Potency is inconclusive: 22.2 µM [rising, partial curve].

What about the Potency [2] of the same compound?
Its Potency is inconclusive: 33.5 µM [cytotoxic, single point] and inconclusive: 22.4 mM [cytotoxic].

What about the Potency [3] of the same compound?
Its Potency is inconclusive: 78.1 µM [activator, single point].

What about the Potency [4] of the same compound?
Its Potency is active: 69.6 µM and inconclusive: 33.5 µM [cytotoxic, single point] and inconclusive: 22.4 mM [cytotoxic, single point].

And the Potency [5]?
The Potency was “inactive”.

And the Potency [6]?
The Potency was active: 64.3 µM and inconclusive: 43.6 µM [inhibitor, single point] and active: 20 mM.

And the Potency [7]?
Its Potency is inconclusive: 34.7 µM [inhibitor, single point] and inconclusive: 25.1 mM [inhibitor, single point].

What about the Potency [8] of the same compound?
The Potency was active: 993 nM and active: 1.69 µM and active: 1000 µM.

Which results are given for `CCOC(=O)NCCOc1ccc(Oc2ccccc2)cc1`?
activity, negative = inhibition [1]: inconclusive: -0.929%; Potency [2]: inconclusive: 54.5 µM [cytotoxic, partial curve]; Potency [9]: inconclusive: 68.6 µM [cytotoxic, single point]; Potency [4]: inconclusive: 77 µM [cytotoxic, single point]

For `O=C1NC2CCCCN2C12CCN(CCCN1c3ccccc3CCc3ccc(Cl)cc31)CC2` (stereo not drawn), which activity, negative = inhibition [1] is on record?
Its activity, negative = inhibition is inconclusive: -23.9% [at 35.3 µM].

And the Potency [2]?
Its Potency is active: 26.6 µM.

And the Potency [10]?
Its Potency is active: 29.8 µM.

And the Potency [3]?
The Potency was inconclusive: 33.5 µM [activator, single point].

What about the Potency [4] of the same compound?
The Potency was active: 29.8 µM.

And the Potency [6]?
Its Potency is inconclusive: 43.6 µM [inhibitor, single point].
